Laboratory results as given in the RNAGym collection of RNA variant scans (doi:10.7554/elife.90254).
The source gives no read counts; variants with many changes may rest on few reads.

B1: LINE1-mini (parent)
chain: GGCAGAGCUCAACACAGCGUGGCAAAGUGGCUGUGGCUAGACUGCC

Variants of: B1
Experiment: self-cleavage, relative activity (ratio to wild type); higher = more cleavage; in vitro, sequencing; the parent is a self-cleaving ribozyme
G5C G7C G30U gave a self-cleavage of 0.11.
Variant G5C G17A G33C has a self-cleavage of 0.04.
For G5C G19U U28A G29U A41U, the self-cleavage was 0.06.
For G5C C18G G30U U34C, the self-cleavage was 0.02.
G5U A11G U34C showed a self-cleavage of 0.06.
In the case of G5U A11U C23A U32G A41U, the self-cleavage is reported as 0.01.
Variant G5C G17U A41G has a self-cleavage of 0.11.
In the case of G5C G19C C31A, the self-cleavage is reported as 0.09.
For G5C G33A A39G C45G, the self-cleavage was 0.03.
Work on G5C C15G C18A G19U U20C U32A yielded a self-cleavage of 0.01.
G5C C10U G33U G44A showed a self-cleavage of 0.02.
G5C A39G U43G gave a self-cleavage of 0.
For G5U A6C G19C G35C, the self-cleavage was 0.07.
Work on G5U A6U C8U C18A G21A A24C A41C yielded a self-cleavage of 0.24.
G5U A6U C37A C42U showed a self-cleavage of 0.06.
G5C G40C U43A G44C C45U showed a self-cleavage of 0.01.
G5C C10A A16U C18U U20G G27A showed a self-cleavage of 0.06.
For G5U A11U U43A C46U, the self-cleavage was 0.
For G5C G22C A25U U28G U32C, the self-cleavage was 0.01.
With G5C C10G A14G A26U the self-cleavage was 0.03.
G5C U20A G21U showed a self-cleavage of 0.03.
With G5C G33A G35A the self-cleavage was 0.04.
For G5C G7C U43A, the self-cleavage was 0.68.
For G5C C8G U20A C46A, the self-cleavage was 0.01.
With G5C C13A G36U the self-cleavage was 0.01.
For G5C G22U G35U, the self-cleavage was 0.06.
G5C C15G G36U showed a self-cleavage of 0.01.
In the case of G5C G21C A25G G36A G44U, the self-cleavage is reported as 0.04.
With G5C C8U C10U A25C the self-cleavage was 0.02.
In the case of G5C C15A U34A, the self-cleavage is reported as 0.08.
G5C G21A C42U gave a self-cleavage of 0.06.
With G5C C15G G19C the self-cleavage was 0.04.
G5C G7A G21A U28C G29U G35C gave a self-cleavage of 0.06.
In the case of G5C G22U A25G A39G C45U, the self-cleavage is reported as 0.01.
G5C C8U A12G U20A G27A U34G showed a self-cleavage of 0.02.
G5C C37G G40A showed a self-cleavage of 0.12.
In the case of G5C C8A G21A, the self-cleavage is reported as 0.33.
With G5C U28G U34C C37U the self-cleavage was 0.03.
G5C U20A G27U G30A U34C C42A U43C gave a self-cleavage of 0.05.
In the case of G5C G33A U34A C42G, the self-cleavage is reported as 0.03.
In the case of G5U A6G A16C, the self-cleavage is reported as 0.05.
In the case of G5C C10A G21A C46G, the self-cleavage is reported as 0.02.
G5U A11G G21C G27A gave a self-cleavage of 0.01.
With G5C U9A G19A G29C G35U the self-cleavage was 0.04.
Work on G5C C18A G44U yielded a self-cleavage of 0.
Variant G5C G7U A25G has a self-cleavage of 0.09.
Variant G5C U32C C37A A39G has a self-cleavage of 0.04.
In the case of G5C C10A G17C G27A, the self-cleavage is reported as 0.02.
For G5C G30C G36A, the self-cleavage was 0.06.
For G5C U9A A14C G36C C42U, the self-cleavage was 0.03.
For G5C C18U C45G, the self-cleavage was 0.01.
For G5C G21U A25U G33U C42U, the self-cleavage was 0.1.
For G5C C13G C45U, the self-cleavage was 0.11.
With G5C G22U G30U the self-cleavage was 0.63.
For G5C G21U G35U, the self-cleavage was 0.06.
In the case of G5C C10A A25C, the self-cleavage is reported as 0.03.
For G5C C8U C31U, the self-cleavage was 0.
G5C U20G A25U gave a self-cleavage of 0.05.
Variant G5C C8U U9G A12G has a self-cleavage of 0.03.
G5C G7A A14G G17A G36U showed a self-cleavage of 0.03.
Variant G5C G33C U34A has a self-cleavage of 0.02.
G5C C10U A26C gave a self-cleavage of 0.01.
Work on G5C C10A A12G C31U yielded a self-cleavage of 0.02.
In the case of G5C G7U A41G C42A, the self-cleavage is reported as 0.1.
For G5C C15A A39C, the self-cleavage was 0.02.
With G5C G29U C46A the self-cleavage was 0.11.
In the case of G5U A6C C18A C42A, the self-cleavage is reported as 0.03.
Variant G5U A11U A25G A41C has a self-cleavage of 0.01.
For G5C G30U G33U G36U G40U C42A, the self-cleavage was 0.08.
With G5C C13G G30U U43G G44U C46G the self-cleavage was 0.02.
G5C G7C A12C showed a self-cleavage of 0.03.
Work on G5C U20G A26U yielded a self-cleavage of 0.04.
G5U A6C G7A A25U gave a self-cleavage of 0.09.
G5C U9G G19A U20A showed a self-cleavage of 0.42.
G5C C10U C15A C18A A25G gave a self-cleavage of 0.04.
In the case of G5C C13A A26U, the self-cleavage is reported as 0.04.
Variant G5C G17U A39C G40C C42A has a self-cleavage of 0.
G5C C31A G36U gave a self-cleavage of 0.03.
With G5C C15G C23U A24G C46U the self-cleavage was 0.01.
With G5C G22U C42U the self-cleavage was 0.01.
Work on G5C G21A G22U yielded a self-cleavage of 0.02.
With G5C C10A G19U U20A the self-cleavage was 0.02.
For G5C C8G C23A A41G, the self-cleavage was 0.31.
For G5C C23U U34G, the self-cleavage was 0.02.
